Assay results taken from PubChem BioAssay AID493208 (National Center for Advancing Translational Sciences (NCATS), 2011).
Hit rate of the full screen: of about 44,000 compounds, about 340 (0.77%) were called active. Another 5% or so got no clear call; they are omitted. Calls come from the whole dose curve; as a rule, active = well fitted inhibition curve with a large enough effect; inconclusive = small, poorly fitted or top-dose-only effect; inactive = flat fitted curve, though single readings scatter. The list shows a part of the results.

Assay: Acumen qHTS Assay for Inhibitors of the mTORC1 Signaling Pathway in MEF (Tsc2-/-, p53-/-) Cells: Sytravon;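 note: plate controls were DMSO for no effect and rapamycin for full effect; nearly all actives have a fitted effect of over 50% in size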
Conditions: phospho-rpS6 immunofluorescence/PI, 24 h; series mostly up to 38.3 µM; activity change, negative = inhibition: at the top concentration
Summary of the method: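 Immunofluorescence of rpS6 phosphorylation in Tsc2-/-, p53-/- MEFs after 24 h compound exposure, normalized to propidium iodide signal. Activity is expressed as % positive cells, thresholded with 7.5 nM rapamycin.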

Activity change, negative = inhibition, inactive:
CCCSc1oc(-c2ccco2)nc1S(=O)(=O)c1ccc(Br)cc1 -28.1%, COCCn1ccc2c(OCC(=O)Nc3c(C)cc(C)cc3C)cccc2c1=O -4.55%, Cc1ccc(S(=O)(=O)n2nc(-c3ccc(Cl)cc3)nc2NCc2ccccc2)cc1 -1.46%, CC1CCc2c(sc3nnn(Cc4cccc(C(=O)OC(C)C)c4)c(=O)c23)C1 (stereo not given) 1.81%, CC(=O)N1CCc2c(sc3c2c(=O)n(-c2ccc(F)cc2)c(=O)n3Cc2ccc(C#N)cc2)C1 -4.7%, CCn1c(C(=O)NCc2ccccc2OC)cc2sccc21 -1.76%, CCOc1ccccc1CNC(=O)C1CCN(S(=O)(=O)c2c(C)noc2/C=C/c2ccccc2F)CC1 3.11%, CC1=C(c2ccc(C(C)C)cc2)S(=O)(=O)N=C1N1CCC(C(=O)NCc2ccccc2)CC1 3.16%, COc1ccc(-n2ccnc(NCc3cccs3)c2=O)cc1OC -1.18%, O=C(NCc1ccccc1Cl)c1ccc(NC(=O)N2CCCCc3ccccc32)cc1 1.13%, Cc1ccc(S(=O)(=O)c2c(Nc3cccc(Cl)c3)sc(C(=O)c3ccc4c(c3)OCO4)c2N)cc1 -7.6%, CCOc1ccc(NC(=O)CSC2=Nc3ccccc3C3=NC(CC(=O)NCc4ccc5c(c4)OCO5)C(=O)N23)cc1 (stereo not given) 0.196%, O=C(OCc1cc(=O)n2c3c(sc2n1)CCCC3)c1cccc(NC(=O)c2ccccc2F)c1 12.4%, Cc1ccc(C(=O)c2oc3ccccc3c2NC(=O)Cc2coc3c(C)c(C)ccc23)cc1 2.88%, Cc1cccc(NC(=O)CN(C)S(=O)(=O)c2ccc3c(c2)c(=O)n(C)c(=O)n3C)c1 -7.2%, O=C(NCCS(=O)(=O)N1CCN(c2ccccc2)CC1)C1CC(=O)N(c2ccccc2)C1 (stereo not given) 2.21%, COc1ccccc1C(=O)Nc1ccc(-c2nc3ccccc3s2)c(C)c1 0.475%, Cc1cc(Br)ccc1NC(=O)C1(S(=O)(=O)c2ccc(Cl)cc2)CC1 -22.4%, Cc1ccc(-c2cc(C(=O)N(Cc3ccccc3)Cc3ccco3)no2)cc1F 1.44%, CCOc1ccc(CCNc2nc3c(-c4ccc(C)cc4)nnn3c3ccccc23)cc1OCC 7.15%, Cc1ccc(-c2ccc(=O)n(CC(=O)Nc3ccc(F)c(Cl)c3)n2)cc1C -0.544%, COc1cccc(NC(=O)CSC2=Nc3ccccc3C3=NC(CCC(=O)NCc4ccco4)C(=O)N23)c1 (stereo not given) -3.69%, COc1ccc(-c2nc(CNS(=O)(=O)c3ccc(C)cc3)cs2)cc1 -7.18%, CCOc1ccccc1C(=O)Nc1ccc(S(=O)(=O)N2CCCCC2c2cccnc2)cc1 (stereo not given) -19.4%, COc1ccccc1C(=O)Nc1nnc(S(=O)(=O)N2CCCCCC2)s1 -27.6%, COc1ccc(C(=O)N2CCc3cc(OC)c(OC)cc3C2COc2ccccc2OC)cc1 (stereo not given) -19.2%, COC(=O)c1c(C)sc(-c2c(-c3cccc(OC)c3)[nH]c3c2c(=O)[nH]c(=O)n3C)c1O -6.62%, CC(=O)Nc1ccc(S(=O)(=O)NC2(C(F)(F)F)NC(=O)N(c3ccc(Cl)cc3)C2=O)cc1 (stereo not given) -0.694%, COc1ccc(C)c2sc(N(Cc3cccnc3)C(=O)CCc3ccccc3)nc12 -7.85%, CCCn1c(=O)c2sccc2n2c(CCCC(=O)Nc3ccc(C)c(F)c3)nnc12 2.91%, Cc1ccc(C(=O)COC(=O)c2cc(-c3ccc(Cl)cc3)nc3ccccc23)cc1 -10.6%, COc1ccc(-c2noc(CN3CCN(c4ccccc4OC)CC3)n2)cc1OC -6.35%, COc1ccc(OC)c(-c2noc(CSc3nnc(Cc4ccccc4)n3-c3cccc(C)c3)n2)c1 -0.618%, Cn1cc(S(=O)(=O)c2ccccc2)c(=O)c2cc(F)c(N3CCCCC3)cc21 -4.82%, Cc1noc2nc(C(=O)O)nc(N3CCCCC3)c12 -2.05%, CCc1nnc(SCC(=O)Nc2cc(Cl)c(OC)cc2OC)c2cc3oc(C)cc3n12 3.26%, COc1cccc(N2CC(NC(=O)COc3ccc4ccccc4c3)CC2=O)c1 (stereo not given) -1.56%, CC(=O)c1ccc(NC(=O)CCn2nc(C)c(S(=O)(=O)N3CCC(C)CC3)c2C)cc1 4.49%, CC1CCC(NC(=O)Cn2ncc3c4ccccc4n(Cc4ccc(Cl)cc4)c3c2=O)CC1 (stereo not given) 1.29%, CC(C)c1cnc2c(c1SCc1cccc(C(F)(F)F)c1)c(=O)n(C)c(=O)n2C 0.424%, Cc1ccc(-n2c(=O)c3ccc(C(=O)NCc4ccco4)cc3n(Cc3cccc(Cl)c3)c2=O)cc1 -6.41%, Cc1cccc(-n2c3nc(=O)n(C)c(=O)c-3cc3c(Cl)cccc32)c1C -0.406%, CCc1nc(SCC(=O)Nc2ccc(NC(C)=O)cc2)n[nH]1 -3.85%, CC(C)CCNC(=O)CSCc1cnn(-c2ccccc2)c1-n1cccc1 -2.76%, COC(=O)c1ccccc1NC(=O)Cc1noc2ccc(C)cc12 -4.64%, COc1ccc(Br)cc1CNC(=O)CN1CCSc2ccccc21 -9.72%, CCc1ccc(NC(=O)CC2C(=O)N(c3ccccc3)C(=O)N2C(C)C)cc1 (stereo not given) -2.24%, COc1ccc(NC(=O)Cn2c(=O)n(Cc3nc(-c4ccccc4)no3)c(=O)c3cc4c(cc32)OCO4)cc1Cl -0.31%, O=C(Nc1ccc(Cl)c(Cl)c1)N1CCC(c2ccccc2)C1 (stereo not given) -11.8%, COc1ccc2c(c1)-c1nc(NC(=O)c3ccc(Cl)cc3)sc1CC2 -24.5%, COc1ccc(CNc2ncnc3c2nnn3C)cc1 -0.657%, Cc1nn(CC(=O)NCc2ccc(OC(C)C)cc2)c(=O)c2c(C)n(-c3ccc(Cl)cc3)nc12 10.2%, COc1ccc(CN2C(=O)C(NC(=O)c3ccccc3C)(C(F)(F)F)N=C2c2ccccc2)cc1 (stereo not given) 5.98%, Cc1cccc(NC(=O)Cn2cc(C(=O)c3ccco3)c3ccccc32)c1C -6.4%, CCc1ccccc1NC(=O)Cn1nnc(C(=O)Nc2ccc(C)c(F)c2)c1N -25.7%, Cc1ccc2oc(-c3ccc(Cl)c(NC(=O)c4ccc(-c5ccccc5[N+](=O)[O-])o4)c3)nc2c1 -0.24%, CSc1ccc(CCNC(=O)Cn2ncc3c(=O)oc4ccc(C)cc4c32)cc1 1.3%, CCCCCOc1ccc(C2c3c(oc4ccccc4c3=O)C(=O)N2c2nc(C)c(C)s2)cc1OCC (stereo not given) -0.343%, COc1ccccc1CCNc1ncnc2c1nnn2C -5.82%, Cn1nc(C(=O)N2CCN(c3ccccc3)CC2)c2c1-c1ccccc1S(=O)(=O)C2 8.95%, COc1ccc(C)cc1NC(=O)c1ccc2c(Cl)c3c(nc2c1)CCC3 -4.85%, COc1ccc(S(=O)(=O)c2c(SC)nn(Cc3ccccc3C)c2NC(C)=O)cc1 2.62%, O=C(Nc1ccc(O)cc1)c1cccc(S(=O)(=O)N2CCOCC2)c1 -1.75%, O=C(CSc1nc2c([nH]c3ccccc32)c(=O)n1-c1ccccc1)N1CCCC1 -9.89%, CCOC(=O)c1cccc(Nc2ccc3cc(S(=O)(=O)N4CCCCC4)ccc3n2)c1 -7.8%, O=c1c2oc3ccccc3c2n(Cc2ccccc2)c(=O)n1Cc1ccc2c(c1)OCO2 -3.69%, Cc1ccc(OCC(=O)Nc2ccc3nn(-c4ccc(Cl)cc4)nc3c2)cc1 10.3%, CCOC(=O)C1CCCN(C(=O)c2ccc3c(c2)N(Cc2ccccc2)C(=O)c2ccccc2S3=O)C1 (stereo not given) 1.55%, Cc1ccc(C)c(NC(=O)Cn2c(=O)n(CCC(=O)NCc3ccc4c(c3)OCO4)c(=O)c3ccccc32)c1 -2.28%, CCCN1CCCc2cc(CN(CCCN3CCOCC3)C(=O)Nc3ccc(CC)cc3)ccc21 -13.9%, COc1cc(C2CC(=O)Nc3c2c(=O)[nH]c2ncnn32)ccc1O (stereo not given) 2.31%, CCCCc1nn2c(=O)cc(COC(=O)c3ccccc3NC(=O)c3ccccc3OC)nc2s1 13.9%, COc1cccc(NS(=O)(=O)c2ccc3[nH]cc(C(=O)N(C)C4CCCCC4)c(=O)c3c2)c1 2.05%, CCCC(=O)N1c2nc(C(C)C)nn2C2(CCCCC2)[C@@H]2CCCC[C@@H]21 -6.84%, COc1ccc2oc(=O)cc(CN3CCN(c4ccccc4F)CC3)c2c1 1.66%, COc1cccc(CNC(=O)c2ccc(NC(=O)N3CCCCc4ccccc43)cc2)c1 -5.97%, O=C(Nc1cccc(Cl)c1)c1csnn1 -1.61%, Cc1ccc(-c2nc(SCC(=O)NCC3CCCO3)c(-c3ccc(C)cc3)[nH]2)cc1 (stereo not given) 1.03%, NC(=O)c1cc(S(=O)(=O)NCC2CCC(C(=O)Nc3ccc(Cl)cc3)CC2)cs1 (stereo not given) 0%, Cc1nnc(N2CCN(C(=O)Nc3cccc(C(F)(F)F)c3)CC2)c2nn(-c3ccccc3)c(C)c12 11.2%, Cc1oc2ncn(C)c(=O)c2c1C(=O)Nc1ccc(F)cc1 -7.52%, Cc1cc(OCC(=O)NC(Cc2c[nH]c3ccccc23)C(=O)O)ccc1Cl (stereo not given) -12.9%, Cc1cc(N2CCN(c3ccc(F)cc3)CC2)n2nc(-c3ccc(Cl)cc3)nc2n1 1.95%, CCc1nn(CC(=O)NCCc2ccc(Cl)cc2)c(=O)c2cc3ccccc3n12 1.08%, CCOC(=O)c1[nH]c(C)c(CCC(=O)Nc2ccccc2C(=O)OC)c1C -15.1%, CCOc1ccc2nc(N(Cc3cccnc3)C(=O)C3CCCCC3)sc2c1 -1.19%, Cc1ccc(-c2nnc(Nc3ccccc3)c3ccccc23)cc1S(=O)(=O)N1CCOCC1 8.37%, Cc1ccc(C2CCN(C(=O)Nc3ccc(Cl)c(Cl)c3)C2)cc1 (stereo not given) -7.58%, Cc1cccc(N2CCN(C(=O)c3oc(=O)c4ccccc4c3-c3ccccc3)CC2C)c1 (stereo not given) -1.32%, COc1ccc(Cn2c(CCC(=O)Nc3ccc(C)cc3C)nc3cccnc32)cc1 -4.07%, Cc1oc2ccc(O)c(CN3CCN(C)CC3)c2c1C(=O)Nc1ccccc1 -1.8%, COc1cccc(CNC(=O)c2cccc(-n3c(C)nc4cccnc43)c2C)c1 0.313%, Cc1cccc(CSc2nc(=O)c3c(n2C)NC(=O)CC3c2cc(F)cc(F)c2)c1 (stereo not given) -4.98%, COc1ccc(-c2[nH]ncc2C(=O)NCc2cccc(OC)c2)cc1 1.15%, Cc1ccsc1CN(C(=O)COc1ccc(Cl)cc1)C1CCS(=O)(=O)C1 (stereo not given) 2.55%
